# Test results: publication PMC4336329 (PLoS ONE, 2015)
# In all, about 310,000 compounds went through this assay and about 14,000 (4.5%) showed an effect of 50% or more. The effect is printed as a negative number. The list shows a part of the results. Where a SMILES comes first, the peptide text is derived from it. [ ]: non-standard residue; d: D form. The star is where a group is joined. ξ: configuration not given here. ξF = NC(Cc1ccccc1)C(=O)O; Cbz = O=C(OCc1ccccc1)*
# Molecular target: human ether-à-go-go-related gene (hERG) potassium channel (human, UniProt Q12809)
# Assay: primary screen, population patch clamp on CHO cells stably expressing hERG
# 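Note: peak tail current of the secondary pulse compared with the same well before compound.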
# Sequence of human ether-à-go-go-related gene (hERG) potassium channel (Q12809 whole entry, looked up): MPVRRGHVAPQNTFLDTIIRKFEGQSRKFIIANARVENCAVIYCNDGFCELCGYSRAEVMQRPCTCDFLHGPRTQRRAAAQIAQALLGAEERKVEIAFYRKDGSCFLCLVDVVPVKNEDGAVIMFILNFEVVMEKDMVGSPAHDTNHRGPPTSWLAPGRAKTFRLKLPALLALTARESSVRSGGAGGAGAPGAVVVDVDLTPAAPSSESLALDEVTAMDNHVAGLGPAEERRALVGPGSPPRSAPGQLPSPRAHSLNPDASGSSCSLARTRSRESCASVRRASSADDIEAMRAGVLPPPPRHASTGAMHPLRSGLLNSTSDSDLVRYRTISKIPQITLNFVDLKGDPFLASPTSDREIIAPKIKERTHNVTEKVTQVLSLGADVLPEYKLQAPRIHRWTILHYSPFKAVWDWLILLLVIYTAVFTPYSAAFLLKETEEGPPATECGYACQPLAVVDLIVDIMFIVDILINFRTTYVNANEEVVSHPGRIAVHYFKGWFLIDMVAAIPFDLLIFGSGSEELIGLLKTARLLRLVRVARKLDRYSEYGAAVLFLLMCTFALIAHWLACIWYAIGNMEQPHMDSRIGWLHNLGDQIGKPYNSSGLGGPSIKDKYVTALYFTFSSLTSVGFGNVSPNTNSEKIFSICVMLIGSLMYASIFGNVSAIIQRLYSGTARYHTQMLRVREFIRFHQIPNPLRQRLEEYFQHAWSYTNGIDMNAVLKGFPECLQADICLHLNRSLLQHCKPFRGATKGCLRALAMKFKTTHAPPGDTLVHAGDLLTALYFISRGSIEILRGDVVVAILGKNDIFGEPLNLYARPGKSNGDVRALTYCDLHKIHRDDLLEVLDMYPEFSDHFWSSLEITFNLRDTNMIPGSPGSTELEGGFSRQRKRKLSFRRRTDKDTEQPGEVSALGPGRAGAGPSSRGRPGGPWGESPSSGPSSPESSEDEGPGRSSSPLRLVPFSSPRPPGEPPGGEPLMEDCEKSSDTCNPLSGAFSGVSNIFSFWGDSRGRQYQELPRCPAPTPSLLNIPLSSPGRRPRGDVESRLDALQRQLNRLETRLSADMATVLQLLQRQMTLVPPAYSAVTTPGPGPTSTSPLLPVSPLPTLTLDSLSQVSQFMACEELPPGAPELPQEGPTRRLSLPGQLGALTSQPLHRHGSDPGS
row,SMILES,"hERG current change (%, negative = inhibition) at 10uM [%]"
1,CN(CC(=O)Nc1ccccc1Cl)C(=O)c1cccc(S(=O)(=O)N2CCN(Cc3ccccc3)CC2)c1,-9.44
2,Cc1ccc(C)c(N2CCN(C(=O)c3cc(S(=O)(=O)N4CCCC4)cn3C)CC2)c1,-15.2
3,CCc1nc2nc(C)c(NS(=O)(=O)c3ccc(C)c(C)c3)c(=O)n2[nH]1,6.32
4,CCN(CC)S(=O)(=O)c1cc(NC(=O)Cn2ncc(Cl)c(Cl)c2=O)ccc1C,-29.4
5,COc1ccc2cc(Br)ccc2c1CC(=O)NCCCN1CCOCC1,-20.7
6,CCC(C)NS(=O)(=O)c1ccc(-c2csnn2)s1 (stereo not drawn),-8.46
7,Cc1cc(Cl)ccc1OCCCC(=O)N1CCCCC1,-14.2
8,CCCOc1ccc(C(=O)NCCC(=O)NCCCC(=O)OCC)cc1,-10
9,CCOCc1c(C(=O)OCC(=O)Nc2ccccc2C(N)=O)oc2ccccc12,-11.8
10,COc1cccc(/C=N/NC(=O)C(=O)N2CCCC2)c1OC,13.7
11,Cc1ccc(C(=O)/C=C/c2ccc3ncccc3c2)cc1,-2.43
12,Fc1ccccc1-c1cc2ccccc2cn1,-7.07
13,CCOC(=O)Cc1nnc(NC(=O)CSc2ncc(-c3ccccc3)nn2)s1,-58.7
14,O=C1CSC(c2ccccc2F)N1c1ccccc1F (stereo not drawn),9.77
15,CCC(C)(C)NC(=O)c1ccc(S(=O)(=O)N(C)c2ccccc2OC)cc1,1.3
16,Nc1cc(N2CCNCC2)ccc1[N+](=O)[O-],-2.54
17,C=CCNC(=O)N1CCC(c2nc3ccccc3s2)CC1,10.5
18,CN1C(=O)C(CC(=O)Nc2ccc(F)cc2)N(CCCc2ccccc2)C1=S (stereo not drawn),0.0595
19,C/C(=N\NC(=O)COc1ccccc1)c1cccs1,0.14
20,Cc1ccc2c(c1)COc1c3ccc(C(=O)O)cc3nn1-2,5.07
21,COc1ccccc1OCCn1c(=O)sc2ccccc21,30
22,CCC(Sc1nc2n[nH]c(C)c2c(=N)n1-c1cccc(Cl)c1C)C(=O)N(CC)CC (stereo not drawn),-4.52

row,SMILES,"hERG current change (%, negative = inhibition) at 10uM [%]"
1,Cn1ncc(Cl)c(Oc2ccccc2)c1=O,10.2
2,O=C(CN1CCN(CC(=O)Nc2ccccc2F)CC1)Nc1ccc2c(c1)OCCO2,-71.2
3,COc1ccc2oc(C(=O)OCc3nnc(-c4ccccc4)o3)c(C)c2c1,19.8
4,Cc1nnc2c(NCC(C)c3ccccc3)nc3ccccc3n12 (stereo not drawn),-2.36
5,COc1ccc(-c2csc(N3CCN(c4cc5c(cc4Cl)nc(-c4ccncc4)n5CCOCCO)CC3)n2)cc1,12.6
6,Cc1ccc(C(=O)N2CCC3(CC2)Oc2ccc(Cl)cc2C(=O)C32CC(c3ccccc3)=NO2)s1 (stereo not drawn),12.4
7,O=C(NC(=S)NCCN1CCOCC1)c1cccc(Cl)c1,-16.9
8,CCn1c(-c2nonc2NC(=O)c2ccccc2)nc2ccccc21,0.625
9,CCOC(=O)NNC1CC(=O)N(c2ccccc2)C1=O (stereo not drawn),7.81
10,Fc1ccc(NC(=S)NC23CN4CN(CN(C4)C2)C3)cc1,2.87
11,CCOC(=O)CN(C(=O)CSc1nnc2c(n1)[nH]c1ccc(F)cc12)c1ccccc1,-19.9
12,Cc1ccc(C)c(S(=O)(=O)N2CCN(C(C(=O)Nc3ccc(F)cc3)c3ccccc3)CC2)c1 (stereo not drawn),7.1
13,COc1ccc(C(=O)Nc2ccc(N3CCN(c4ccc(OC)cc4)CC3)c(C#N)c2)cc1,9.76
14,COc1ccc(OCC(=O)Nn2c(-c3cccc(OC)c3)nc3ccccc3c2=O)cc1,-24.1
15,Cc1cc(C)cc(NC(=O)NCc2ccccn2)c1,17.1
16,CN(CC(=O)Nc1ccc(Cl)c(C(F)(F)F)c1)C(=O)CCN1C(=O)C2CC=CCC2C1=O (stereo not drawn),-37.2
17,O=C(O)c1ccc(N/N=C/c2c(F)cccc2Cl)cc1,18.6
18,CCNC(=S)N/N=C/c1ccc(OCCOc2ccccc2C)cc1,1.5
19,CN(C)C(=O)Oc1c(Cl)cc(Cl)c2ccccc12,-36.2
20,O=C(CCS(=O)(=O)c1ccc(Br)cc1)N1CCN(Cc2ccccc2)CC1,-27
21,Cc1ccc(C(=O)c2sc(Nc3ccccc3)c(C#N)c2N)cc1,32.5
22,O=C(NCC1CCOCC1)c1cc(COc2cccc(C(F)(F)F)c2)on1,-25.1

row,SMILES,"hERG current change (%, negative = inhibition) at 10uM [%]"
1,Cc1ccc2c(c1)C(O)(CC(=O)c1cccnc1)C(=O)N2 (stereo not drawn),-7.87
2,COc1ccc(CSC(=N)N)cc1[N+](=O)[O-].Cl,-3.72
3,COc1cc(/C=N\NC(=O)CNC(=O)C(c2ccccc2)c2ccccc2)ccc1O,-25.7
4,COc1ccc(S(=O)(=O)N2CCN(CC(=O)Nc3ccc(F)c(F)c3)CC2)cc1,-66.4
5,Cc1cc(C)n(-c2ccc(C(=O)O)cc2[N+](=O)[O-])n1,12.5
6,Cc1cc2nc(C)c(Cl)c(=O)n2[nH]1,22.4
7,O=C(COC(=O)C1c2ccccc2Oc2ccccc21)Nc1ccc2c(c1)OCO2,8.92
8,Cc1ccc(OC(C)C(=O)N2CC(=O)Nc3ccccc32)c(C)c1 (stereo not drawn),2.56
9,Cc1nnc(SC(C)C)n(N)c1=O,19.6
10,COc1ccc(CCNC(=O)COC(=O)/C=C/c2ccc(OCC#N)c(OC)c2)cc1,3.03
11,CN(CC(=O)N1CCc2[nH]c3ccc(F)cc3c2C1)CC1OCCO1,5.81
12,CCc1cc(=O)oc2cc(C)cc(OCC(=O)N3CCC[C@@H]3C(=O)O)c12,6.83
13,COC(=O)C1C(c2ccc(OC)c(OC)c2)NC(c2ccc(OC)c(OC)c2)C(C(=O)OC)S1(=O)=O (stereo not drawn),14.1
14,CC(=O)N(C)c1ccc(NC(=O)N2CCOCC2)cc1,4.94
15,CCc1ccc(S(=O)(=O)Nc2c(C)nc3nc[nH]n3c2=O)cc1,19.9
16,CN(C)C(=O)CN1CCN(Cc2cn(C)nc2-c2ccc3c(c2)OCCO3)CC1,5.11
17,O=C(CCc1ccccc1)NCCCN1CCOCC1,12.3
18,CCN(CC(=O)Nc1c(F)cccc1F)C(=O)c1ccc(-c2ccc(C(C)=O)cc2)o1,-25.6
19,COc1ccc(C(=O)NCc2ccc(C)cc2)cc1S(=O)(=O)N1CCCc2ccccc21,-5.67
20,COc1ccc(OC)c(NC(=O)c2cccc(C)c2[N+](=O)[O-])c1,18.4
21,COc1cccc(C2=CC(c3cccs3)n3nnnc3N2)c1 (stereo not drawn),14.5
22,O=C(CN1CCC(C(=O)c2ccc(F)cc2)CC1)NCc1ccccc1F,-39.6

row,SMILES,"hERG current change (%, negative = inhibition) at 10uM [%]"
1,O=C(c1cc(C(=O)NCc2ccccc2)c(=O)n(Cc2ccccc2)c1)c1cc(Br)ccc1O,-3.34
2,COc1ccc(CN2C(=O)[C@@H]3Cc4c([nH]c5ccccc45)C(C)(C)N3C2=O)cc1,-11.6
3,COCCNC(=O)C(=O)Nc1ccc(Br)cc1,2.86
4,CCCn1c(-c2cccc([N+](=O)[O-])c2)nc2c1c(=O)[nH]c(=O)n2Cc1ccccc1,-66.4
5,COc1ccc(/C=C(/NC(=O)c2ccccc2)c2nc3ccc(Cl)cc3[nH]2)cc1OC,-16.6
6,COc1ccccc1-c1nnc(NC(=O)CSc2nncn2C)s1,0.916
7,COC(=O)NCc1ccc(CNC(=O)OC)cc1,4.84
8,CCOc1ccc(-c2cc(CCCC(=O)NCc3ccco3)no2)cc1,-9.6
9,Cn1c(SCC(=O)Nc2ccc3c(c2)OCCO3)nnc1-c1ccccn1,-4.53
10,O=C(CSc1n[nH]c(-c2cccnc2)n1)Nc1ccc([N+](=O)[O-])cc1Br,-20.9
11,Cc1ccc(S(=O)(=O)NC(=O)c2cccc(Br)c2)cc1,10.6
12,O=C(Nc1cc([N+](=O)[O-])ccc1N1CCCC1)c1cccs1,-65.4
13,CN(C(=O)COC(=O)c1ccc(Cl)nc1)c1c(N)n(Cc2ccccc2)c(=O)[nH]c1=O,7.34
14,COc1ccccc1CNC(=O)N/C=C/c1ccc(Cl)cc1,8.3
15,CCOC(=O)C(Cc1ccccc1)NC(=O)CNC(=O)CNC(=O)OCc1ccccc1 (stereo not drawn) (Cbz-Gly-Gly-[ξF]-OEt),15.9
16,CSc1ccccc1-n1nnnc1SCC(=O)NCc1cccs1,-8.64
17,COc1c(OC)c2[nH]c(=O)cc3c4ccccc4n(c1=O)c23,-23.3
18,Cc1ccc(C(=O)Nc2ncnc3sc4c(c23)CCCCC4)cc1,0.0753
19,Cc1cc(NC(=O)CCC(=O)N(Cc2ccccc2)C(C(=O)NC2CCCC2)c2ccco2)no1 (stereo not drawn),-21.8
20,CCOC(=O)c1csc(-n2nc(C)cc2C(F)(F)F)n1,9.28
21,COc1ccc(OC)c(C(c2c(O)c3ccccc3oc2=O)c2c(C)n(C)n(-c3ccccc3)c2=O)c1 (stereo not drawn),13.8
